Test results reported in PubChem BioAssay AID2101 (National Center for Advancing Translational Sciences (NCATS), 2009).
About 300 (0.091%) of roughly 330,000 compounds were called active. The shares of active, inactive and inconclusive entries below differ from those in the screen. Calls come from the whole dose curve; as a rule, active = well fitted inhibition curve with a large enough effect; inconclusive = small, poorly fitted or top-dose-only effect, or effect the other way, or another doubt; inactive = no such curve, though single readings can be large or run the other way. Potencies of inconclusive entries are left out as doubtful fits.

Target: Lysosomal acid glucosylceramidase (Homo sapiens) (UniProt P04062)
Experiment: qHTS Assay for Inhibitors and Activators of N370S glucocerebrosidase as a Potential Chaperone Treatment of Gaucher Disease;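 for activity change, negative = inhibition: 0% = full enzyme activity and -100% = no enzyme basal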
Details: N370S GC spleen homogenate, 4MU-glucoside fluorescence; activity change, negative = inhibition: at 59.4 µM (top of the series) unless noted
Potency is the fitted concentration of half-maximal effect.

Compound | Potency | activity change, negative = inhibition
Cc1ncc(/C=C2\C(=O)Nc3ccccc32)[nH]1 | inconclusive [inhibitor, partial curve] | –
CCOc1cc(-c2nc3ccccc3s2)ccc1O | inconclusive [activator, partial curve] | –
Cc1ccc(NC(=O)[C@H](NC(=O)[C@@H]2Cc3ccccc3CN2)c2ccccc2)cc1C | inconclusive [inhibitor, single point] | –
CCCCCCC(=O)Nc1ccc(C(=O)N2CCCC2)cc1 | – | inconclusive: 37.3% [activator]
COC(=O)c1sc(NC(=O)c2ccc(C)o2)nc1C | – | inactive: 20.8%
Cc1cc(N/N=C/c2ccc(N(C)C)cc2)nc(NCc2ccccc2)n1 | inconclusive [inhibitor, single point] | –
COc1ccc(CNC(=O)CN(C(=O)c2snc(C(N)=O)c2N)c2ccccc2F)cc1 | inconclusive [activator, single point] | –
COc1ccc2c(c1)O[C@@H](c1cccc(C(F)(F)F)c1)[C@H](OC(=O)NS(=O)(=O)c1ccc(C)cc1)C2=O | – | inactive: -4.29%
Oc1ccc(-c2nc3ccccn3c2NCc2ccco2)cc1 | inconclusive [inhibitor, partial curve] | –
O=C(/C=C/c1ccc(O)c(O)c1)c1ccc(O)cc1O | inconclusive [inhibitor, partial curve] | –
Cc1ccc(OCC(=O)N2CCCCC2)c(Br)c1 | – | inactive: 5.48%
COc1ccccc1OCCNC(=O)Nc1ccc(Br)cc1 | – | inconclusive: 30.7% [activator]
Cc1ccc(NC(=O)Nc2ccc3c(c2)OCO3)nc1 | – | inactive: 29.2%
CC[C@@]1([C@@H]2O[C@@H]([C@H]3O[C@@](O)(CO)[C@H](C)C[C@@H]3C)C[C@@H]2C)CC[C@@H]([C@]2(C)CCC3(C[C@H](O)[C@@H](C)[C@@H]([C@@H](C)[C@@H](OC)[C@H](C)C(=O)O)O3)O2)O1 (some centres not stated) | – | inactive: -0.59%
COc1ccc(-n2c(C)n[nH]c2=O)cc1 | – | inactive: -5.15%
COC(=O)C1=CN(Cc2ccc(OC)cc2)C=C(C(=O)OC)C1c1cccs1 | inconclusive [activator, single point] | –
O=C(Cn1cnc2c(cnn2-c2ccccc2)c1=O)N1CCN(c2ccc(F)cc2)CC1 | – | inactive: -2.9%
COc1ccccc1C(=O)COC(=O)c1ccccc1OCC(=O)Nc1ccc(SC(F)F)cc1 | inconclusive [activator, full curve] | –
COc1cc2oc(=O)cc(-c3ccc(-c4ccc(O)cc4)cc3)c2c(OC)c1OC | inconclusive [activator, partial curve] | –
CCOC(=O)C1CCCN(C(=O)c2cc3ncc(Br)cn3n2)C1 (configuration not stated) | inconclusive [inhibitor, partial curve] | –
CCOc1ccc(NC(=O)CN(c2ccc(OCC)cc2)S(=O)(=O)c2c(C)[nH]c(=O)[nH]c2=O)cc1 | active: 6.31 µM | –
COc1cc(C=O)cc(Br)c1OCC(N)=O | – | inactive: 6.21%
Fc1ccc(C2=NN(c3ccccc3)C(c3ccco3)C2)cc1 (configuration not stated) | inconclusive [activator, partial curve] | –

Compound | Potency | activity change, negative = inhibition
O=C(NCCNc1ccc(Cl)cc1[N+](=O)[O-])c1cccnc1 | inconclusive [inhibitor, partial curve] | –
C#CCOc1ccc(C2C3=C(CC(C)(C)CC3=O)N(CC(=O)O)C3=C2C(=O)CC(C)(C)C3)cc1 | inconclusive [activator, partial curve] | –
Cc1cc(N2CCCCC2)nc2ccc(NC(=O)c3ccc(Br)o3)cc12 | inconclusive [inhibitor, partial curve] | –
CC(C)Sc1nc(NCc2ccco2)c2c3c(sc2n1)COC(C)(C)C3 | inconclusive [activator, single point] | –
COc1ccccc1NC(=O)C1=C(C)Nc2nc3ccccc3n2C1c1cccs1 (configuration not stated) | inconclusive [activator, single point] | –
COc1ccc(N(CC(=O)N/N=C/c2cc(Br)c(C)o2)S(=O)(=O)c2ccc(NC(C)=O)cc2)cc1 | inconclusive [inhibitor, single point] | –
COc1ccc(OC)c(NC(=O)C(Sc2ccccc2)c2ccccc2)c1 (configuration not stated) | inconclusive [activator, partial curve] | –
Cc1ccc(/C=C2\SC(=S)N(CCC(=O)NCCCN3CCOCC3)C2=O)cc1 | inconclusive [inhibitor, partial curve] | –
O=C(/C=C/c1ccccc1Cl)c1ccc(O)cc1 | inconclusive [inhibitor, partial curve] | –
C=CCNc1nc(N2CCCCC2)c(C#N)c2c1CN(Cc1ccccc1)CC2 | – | inactive: -5.52%
CC1(C)S[C@@H]2[C@H](NC(=O)[C@@H](N)c3ccccc3)C(=O)N2[C@H]1C(=O)O[C@H]1OC(=O)c2ccccc21 | – | inactive: 1.71% [at 21.6 µM]
CO[C@H]1COC(=O)[C@H](C)NC(=O)[C@@H](C)COC(=O)[C@H]2CCCN2C(=O)C/C=C\[C@H]1C | – | inactive: 0.227% [at 12.8 µM]
CCCCCc1cc(=O)oc2c(C(CCN3CCCCC3)c3cc(OC)c(OC)c(OC)c3)c(OC)cc(OC)c12 (configuration not stated) | inconclusive [inhibitor, partial curve] | –
O=C(COc1cccnc1[N+](=O)[O-])Nc1cc(S(=O)(=O)N2CCCCC2)ccc1Cl | inconclusive [inhibitor, single point] | –
NCCc1nnc(SCC(=O)Nc2ccc(Br)cc2)o1 | inconclusive [inhibitor, single point] | –
CCOC(=O)c1c(OCC)[nH]c2c1cc(O)c1ccccc12 | inconclusive [inhibitor, partial curve] | –
Cc1ccn2c(C(=O)CSc3ccc(Cl)cc3)c(C)nc2c1 | inconclusive [activator, partial curve] | –
Cc1ccc(CN(C)C(=O)C2CCC(=O)N(CCc3ccccc3)C2)o1 (configuration not stated) | – | inactive: 3.73%
Cc1cc(=O)oc2c3c(cc(OCC(=O)NCc4ccccn4)c12)OC(C)(C)CC3 | inconclusive [activator, single point] | –
COCCN1C=C(C(=O)OC)C(c2ccccc2C(F)(F)F)C(C(=O)OC)=C1 | inconclusive [activator, partial curve] | –
C=CCn1c(N)c(C(=O)OCCC)c2nc3ccccc3nc21 | inconclusive [activator, partial curve] | –
c1cc2c(cc1C1CCCN1)OCCCO2 (configuration not stated) | – | inactive: -1.59%
CCOc1ccc(NC(=O)c2cc3n(n2)C(C(F)(F)F)CC(c2ccco2)N3)cc1 (configuration not stated) | inconclusive [activator, partial curve] | –

Compound | Potency | activity change, negative = inhibition
CC[C@@H]1C(c2cccc(Cl)c2)=NN(c2ccccc2)[C@H]1C(=O)N1CCOC1=O | inconclusive [activator, single point] | –
N#Cc1nc(-c2ccc(OCc3ccc(Cl)cc3)cc2)oc1N1CCOCC1 | inconclusive [inhibitor, single point] | –
CC(C)C(NC(=O)C1CCCCC1)C(=O)Nc1ccc2c(c1)OCCO2 (configuration not stated) | – | inactive: 9.19%
CC(=O)NC(Cc1cccc(F)c1)C(=O)NC1CCN(c2ncccc2[N+](=O)[O-])CC1 (configuration not stated) | inconclusive [inhibitor, partial curve] | –
COc1ccc(COc2ccccc2C(=O)NCc2ccccc2)cc1F | inconclusive [activator, single point] | –
CN1CCN(c2ccnc(-c3ccoc3)n2)CC1 | – | inactive: 0.374%
Cn1c(=O)c2c(nc(NCC(O)CO)n2CCc2ccccc2)n(C)c1=O (configuration not stated) | – | inactive: 19.9%
Cc1ccc2nc(-c3ccc(NS(=O)(=O)c4ccc(F)cc4)cc3)sc2c1 | inconclusive [activator, partial curve] | –
O=C(NC1CCCC1)c1cnn2c(C(F)(F)F)cc(-c3ccco3)nc12 | inconclusive [activator, full curve] | –
CC(C)(C)OC(=O)CC[C@@H](C(=O)NCCCCCCCCCCC(=O)N1CCN(C(=O)OC(C)(C)C)CC1)n1cc(CCCCCNC(=O)OC(C)(C)C)nn1 | inconclusive [inhibitor, partial curve] | –
N=C1C(c2nc3ccccc3s2)=C(O)CN1Cc1ccco1 | inconclusive [activator, partial curve] | –
CN(C)c1nc(-c2ccccc2)c2cnn(Cc3ccccc3)c2n1 | inconclusive [activator, partial curve] | –
Cc1ccc(CNC(=O)CN(C(=O)C2(C)CC(=O)N=C3C=CC=CN32)c2cccc(C)c2C)cc1 (configuration not stated) | inconclusive [activator, partial curve] | –
Cc1c(CCO)c(=O)n2c([nH]c3ccccc32)c1C#N | inconclusive [activator, partial curve] | –
O=c1[nH]cccc1-c1nc2ccccc2[nH]1 | inconclusive [activator, partial curve] | –
N#Cc1nc(Cc2cccc3ccccc23)oc1N1CCCCC1 | inconclusive [activator, single point] | –
c1ccc2c(N3CCCCC3)nc(N3CCCC3)nc2c1 | – | inactive: 19.2%
C/C(Cc1ccccc1)=N\NC(=O)C1CCCCC1 | – | inactive: 3.87%
NC(=O)COc1c(-c2ccc(Br)o2)oc2ccccc2c1=O | inconclusive [activator, partial curve] | –
Oc1ccc(/C=N/N2CCN(c3ccccn3)CC2)cc1 | – | inactive: 3.16%
CCn1c(SCc2cccc(F)c2)nnc1-c1ccncc1 | – | inactive: -11.7%
